Test results: PubChem BioAssay AID686979 (National Center for Advancing Translational Sciences (NCATS), 2013)
Screen size: about 420,000 compounds; about 50,000 (12%) were called active. Inconclusive means that the source gave no clear call. Such entries were picked first, then a sample of the others. Calls come from the whole dose curve; as a rule, active = well fitted inhibition curve with a large enough effect; inconclusive = small, poorly fitted or top-dose-only effect; inactive = flat fitted curve, though single readings scatter. No potency is given beside an inconclusive call; the fits are too rough.

Assay: qHTS for Inhibitors of human tyrosyl-DNA phosphodiesterase 1 (TDP1): qHTS in cells in presence of CPT; note: nearly all actives have a fitted effect of over 55% in size
Settings: chicken DT40 Tdp1-/-;hTDP1 cells + 20 nM CPT, ATP luminescence, 48 h; activity change, negative = growth inhibition: at 46.2 µM (top of the series) unless noted
Summary of the method: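 Chicken DT40 Tdp1-/- cells stably complemented with human TDP1 were seeded at 400 cells/well in medium containing 20 nM camptothecin, exposed to pin-transferred compounds, and grown at 37 °C for at least 48 hr. Viability was read as ATP luminescence.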
% is set by controls: 0 for no effect and ±100 for the full control effect; potency is the fitted concentration of half-maximal effect; tags give direction and shape of the fitted curve.

SMILES | Potency | activity change, negative = growth inhibition
CCOc1ccccc1NC(=O)N1CCc2c(sc(C)c2CC)C1c1ccccc1 (stereo not drawn) | inconclusive [inhibitor, single point] | –
CNC(=O)/C(C#N)=C/c1c(N(Cc2ccccc2)Cc2ccccc2)nc2c(C)cccn2c1=O | inconclusive [inhibitor, single point] | –
COC(=O)c1c(NC(=O)C(C)(C)C)sc2c1C(C(=O)OC)CC2 (stereo not drawn) | – | inactive: 2.07%
CN(C)C(=O)COC(=O)c1ccccc1Nc1ccc(SC(F)F)cc1 | inconclusive [inhibitor, single point] | –
CC(C)(C)OC(=O)NCc1ccc(NC(=O)c2nc[nH]c2C(=O)NCCNC(=O)c2[nH]cnc2C(=O)Nc2ccc(CNC(=O)OC(C)(C)C)cc2)cc1 | active: 14.6 µM | –
CS(=O)(=O)N(CC(=O)Nc1ccc(Br)cc1)C1CCCCC1 | inconclusive [inhibitor, single point] | –
COc1ccc(C)cc1N(C(=O)c1snc(C(N)=O)c1N)C(C(=O)NC1CCCC1)c1ccc(F)cc1 (stereo not drawn) | inconclusive [inhibitor, single point] | –
CN(C)c1ccc(/C=C/c2ccnc3ccc(I)cc23)cc1 | active: 3.16 µM | –
O=c1cc(-c2ccccc2)nc2nc(-c3ccccc3)[nH]n12 | inconclusive [inhibitor, single point] | –
COc1ccc(-c2ccc(/C=C(\NC(=O)c3ccccc3)C(=O)N3CCOCC3)o2)cc1 | active: 14.6 µM | –
COc1cc(OC)cc(-c2nnc(NC(=O)Cc3ccc(F)cc3)o2)c1 | active: 1.46 µM | –
CCCCC(=O)NNC(=O)N1c2ccccc2Sc2ccccc21 | – | inactive: 0.908%
Cn1c(CN2CCN(c3ccccc3NS(C)(=O)=O)CC2)nc2ccccc21 | inconclusive [inhibitor, single point] | –
COc1nc2ccc(C)cc2cc1-c1noc(-c2ccccc2)n1 | – | inactive: -24%
O=C(CN1c2ccccc2Sc2ccccc21)N/N=C/c1ccccc1 | inconclusive [inhibitor, single point] | –
CCN1C(=O)[C@H]2[C@@H](c3ccc(-c4cccc(Cl)c4)c(OC)c3)N[C@@](CC(C)C)(C(=O)OC)[C@H]2C1=O | inconclusive [inhibitor, single point] | –
Cc1ccc2nc(SCC(=O)Nc3ccc4sc(C)nc4c3)c(C#N)cc2c1 | inconclusive [inhibitor, partial curve] | –
COc1ccccc1CNC(=O)C(C)n1c(=O)cc(-c2ccccc2)c2c(C)nn(C)c21 (stereo not drawn) | inconclusive [inhibitor, single point] | –
CCCN(C(=O)CCSc1ccc(F)cc1)c1c(N)n(Cc2ccccc2)c(=O)[nH]c1=O | – | inactive: -1.6%
[N-]=[N+]=NC[C@H](Cc1ccccc1)N1CCN(Cc2ccccc2)CCC1=O | – | inactive: -13.8%
CCOC(=O)Cn1c(=O)oc2cc(S(=O)(=O)N3CCN(c4cccc(C)c4)C(C)C3)ccc21 (stereo not drawn) | inconclusive [inhibitor, partial curve] | –
CC(=O)Nc1ccc2nc3c(=O)n(C)c(=O)n(C)c3nc2c1C | – | inactive: 2.98%
CC(C)Cn1c(N)c(C(=O)COC(=O)c2nccnc2N)c(=O)n(C)c1=O | – | inactive: -23.1%
COc1ccc(N(C)C2=NS(=O)(=O)c3ccccc32)cc1 | active: 3.66 µM | –
Cc1ccc(NS(=O)(=O)c2ccc3c(c2)oc(=O)n3C)c(C)c1 | – | inconclusive: -31.9% [inhibitor]

SMILES | Potency | activity change, negative = growth inhibition
O=C1CCCc2ccc3ccccc3c21 | – | inactive: 16.8%
Cc1ccc(C(=O)Cn2c(=N)n(CCN3CCOCC3)c3ccccc32)cc1 | inconclusive [inhibitor, single point] | –
Cc1ccc(C(=O)OCC(=O)NCc2ccc(Cl)cc2Cl)o1 | inconclusive [inhibitor, single point] | –
c1ccc(-c2nc(NCc3ccco3)c3ccccc3n2)cc1 | active: 16.4 µM | –
Cc1cc(Cl)c(S(=O)(=O)NC2CCCC2)cc1OCC(=O)NC1CCCCC1 | active: 25.9 µM | –
CCSc1nsc(NC(=O)Nc2cccc(OC)c2)n1 | inconclusive [inhibitor, single point] | –
CC1(Cc2cccc(C(F)(F)F)c2)C(=O)Nc2ccc(-c3ccc(F)c(Cl)c3)cc21 (stereo not drawn) | inconclusive [inhibitor, single point] | –
COc1ccc([N+](=O)[O-])cc1NC(=O)CSc1ccc2ccccc2c1 | active: 23.1 µM | –
CC(C)c1nn2c(=O)cc(COC(=O)c3cccs3)nc2s1 | – | inactive: 2.16%
O=C(Nc1ccc(-c2nc3ccccc3o2)cc1)c1ccc(N2C(=O)C3C4C=CC(C4)C3C2=O)cc1 (stereo not drawn) | inconclusive [inhibitor, partial curve] | –
CN(Cc1ccccc1)c1cc2c(c3c1ccn3C)C1CCC2O1 (stereo not drawn) | inconclusive [inhibitor, single point] | –
CN(C)c1ccc(Nc2nc(N)c3ccccc3n2)cc1 | active: 25.9 µM | –
O=C(NCCCN1CCCCC1)C1CCN(c2ncnc3c2nc2n3CCCCC2)CC1 | inconclusive [inhibitor, single point] | –
CN(C)c1cccc(C(=O)N2CCCC(CCC(=O)NCc3ccccc3F)C2)c1 (stereo not drawn) | inconclusive [inhibitor, single point] | –
O=S(=O)(c1cccs1)N1CCN(Cc2cccc(F)c2)CC1 | – | inactive: -23.6%
CC1CC(C)CN(S(=O)(=O)c2ccc3c(c2)CC(=O)N3)C1 (stereo not drawn) | – | inactive: 0.192%
COc1ccc(C2CC(c3ccc(Cl)cc3)Nc3nc(NC(=O)c4ccco4)nn32)cc1 (stereo not drawn) | inconclusive [inhibitor, single point] | –
Cc1nc(-c2ccc(NC(=O)c3cccs3)cc2)cs1 | inconclusive [inhibitor, partial curve] | –
CCNc1nc(OC)nc(N2CCC(Cc3ccccc3)CC2)n1 | inconclusive [inhibitor, single point] | –
Cc1ccc(OCC(=O)Nc2ccc3c(c2)nc(CCN2CCC(C)CC2)n3C)cc1 | inconclusive [inhibitor, single point] | –
N#Cc1nc(-c2ccc(COc3ccccc3)o2)oc1N1CCN(c2ccccc2)CC1 | – | inactive: -2.32%
O=C(CSc1ccc(-c2cccnc2)nn1)Nc1ccccc1C(F)(F)F | – | inactive: -24.3%
Cc1c(CCOC(=O)c2ccccc2)sc[n+]1Cc1ccccc1 | active: 16.4 µM | –
COc1ccc(N(CC(=O)NCCC2=CCCCC2)S(=O)(=O)c2ccccc2)cc1OC | inconclusive [inhibitor, single point] | –
CC(=O)Nc1ccc(NC(=S)NC(=O)c2cc3ccccc3o2)cc1 | – | inactive: -5.44%

SMILES | Potency | activity change, negative = growth inhibition
CCC(=O)c1ccc(OCC(O)CN2CCN(c3cccc(C(F)(F)F)c3)CC2)cc1 (stereo not drawn) | inconclusive [inhibitor, single point] | –
COCCNc1c(-c2cc3ccc(C)c(C)c3[nH]c2=O)nc2ccccn12 | inconclusive [inhibitor, single point] | –
COc1ccc(Cl)cc1NC(=O)N1CCN(Cc2cc(=O)n3nc(-c4ccccc4)sc3n2)CC1 | – | inactive: -14.2%
CC1C(=O)C(C)C(c2ccc([N+](=O)[O-])cc2)NC1c1ccc([N+](=O)[O-])cc1 (stereo not drawn) | inconclusive [inhibitor, partial curve] | –
CC1(C)Cc2c(sc3nnn(Cc4ccc(Cl)cc4)c(=O)c23)CO1 | inconclusive [inhibitor, single point] | –
CC1=C(C(=O)OCc2ccc3c(c2)OCO3)C(c2ccc(F)cc2)NC(=O)N1 (stereo not drawn) | active: 4.11 µM | –
COc1ccccc1NC(=O)CCc1c(C)nc2c(-c3ccc(F)cc3)c(C)nn2c1C | active: 14.6 µM | –
CC1=N/C(=C\c2ccccc2Cl)C(=O)O1 | – | inactive: -3.54%
N#Cc1ccc(CN2CC3(CCN(C(=O)c4csnn4)CC3)C2)cc1 | – | inactive: 8.55%
O=S(=O)(c1ccccc1)N1CCC(n2nnc3cc(F)ccc32)CC1 | – | inconclusive: -31.9% [inhibitor]
CCOC(=O)c1nn(-c2ccc(F)cc2)c(=O)cc1OCC(=O)Nc1cccc(C)c1 | inconclusive [inhibitor, partial curve, poor fit] | –
Cc1nc2nc(N)nc(OCc3ccccc3)c2nc1C | – | inactive: 3.66%
O=C(NCCCN1CCCC1=O)C1CCN(S(=O)(=O)c2ccccc2)CC1 | – | inactive: -0.0419%
O=C(COc1coc(CN2CCc3ccccc3C2)cc1=O)Nc1ccc(F)cc1F | – | inactive: -24.8%
CCOC(=O)c1cnn(-c2ccc(C(=O)Nc3ccc(C(C)=O)cc3)cc2)c1N | – | inactive: -2.41%
CCN(CC(=O)Nc1ccccc1C(F)(F)F)C(=O)c1cc2c(s1)CCCCC2 | inconclusive [inhibitor, single point] | –
Cc1ccc2nc(-c3ccncc3)cc(-c3ccccc3)c2c1 | inconclusive [inhibitor, single point] | –
COc1cc(OC)c(C(=O)OC(C)C(=O)NCc2ccc3c(c2)OCO3)cc1OC (stereo not drawn) | inconclusive [inhibitor, single point] | –
CCC1(c2ccccc2)NC(=O)N(CC(=O)N(C)Cc2c(F)cccc2Cl)C1=O (stereo not drawn) | – | inactive: -9.21%
COc1ccc(C(=O)OC2CCN(C)CC2)cc1 | – | inactive: 9.35%
CC(O)(c1ccc(F)c(F)c1)c1nc(-c2ccc(S(C)(=O)=O)cc2)cs1 (stereo not drawn) | inconclusive [inhibitor, single point] | –
Cc1ccccc1CN1CCC(n2nccc2NC(=O)CCOc2ccccc2)CC1 | – | inconclusive: -35% [inhibitor]
COc1cccc(C(=O)OCC(=O)c2c[nH]c3ccccc23)c1O | – | inactive: -13.9%
